In all, about 33,000 sequences were measured (“E-score (-0.5 to 0.5)”: median about -0.053, highest 2% from about 0.37 on). The list shows a part of the results.
biological target: Hap1 (UniProt P0CE41); assay: PBM E-score (8-mer binding enrichment) (E-score (-0.5 to 0.5)); higher = stronger / more preferred TF binding; most listed sequences are background and not binding sites; conditions: protein concentration: 200 nM; construct: GST-DNA-binding domain
How it was run: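 The E-score, a modified Wilcoxon-Mann-Whitney statistic, was computed by the Universal PBM Analysis Suite for every ungapped eight-base word pooled with its reverse complement. Scans behind it were normalised with masliner after bound GST-tagged yeast transcription factors were detected with fluorescent anti-GST. The proteins, at about 100-200 nM, had been applied to universal all-10-mer Agilent arrays made double-stranded by primer extension.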

Chain of UniProt P0CE41 (P0CE41 whole entry, the tested form may be a part): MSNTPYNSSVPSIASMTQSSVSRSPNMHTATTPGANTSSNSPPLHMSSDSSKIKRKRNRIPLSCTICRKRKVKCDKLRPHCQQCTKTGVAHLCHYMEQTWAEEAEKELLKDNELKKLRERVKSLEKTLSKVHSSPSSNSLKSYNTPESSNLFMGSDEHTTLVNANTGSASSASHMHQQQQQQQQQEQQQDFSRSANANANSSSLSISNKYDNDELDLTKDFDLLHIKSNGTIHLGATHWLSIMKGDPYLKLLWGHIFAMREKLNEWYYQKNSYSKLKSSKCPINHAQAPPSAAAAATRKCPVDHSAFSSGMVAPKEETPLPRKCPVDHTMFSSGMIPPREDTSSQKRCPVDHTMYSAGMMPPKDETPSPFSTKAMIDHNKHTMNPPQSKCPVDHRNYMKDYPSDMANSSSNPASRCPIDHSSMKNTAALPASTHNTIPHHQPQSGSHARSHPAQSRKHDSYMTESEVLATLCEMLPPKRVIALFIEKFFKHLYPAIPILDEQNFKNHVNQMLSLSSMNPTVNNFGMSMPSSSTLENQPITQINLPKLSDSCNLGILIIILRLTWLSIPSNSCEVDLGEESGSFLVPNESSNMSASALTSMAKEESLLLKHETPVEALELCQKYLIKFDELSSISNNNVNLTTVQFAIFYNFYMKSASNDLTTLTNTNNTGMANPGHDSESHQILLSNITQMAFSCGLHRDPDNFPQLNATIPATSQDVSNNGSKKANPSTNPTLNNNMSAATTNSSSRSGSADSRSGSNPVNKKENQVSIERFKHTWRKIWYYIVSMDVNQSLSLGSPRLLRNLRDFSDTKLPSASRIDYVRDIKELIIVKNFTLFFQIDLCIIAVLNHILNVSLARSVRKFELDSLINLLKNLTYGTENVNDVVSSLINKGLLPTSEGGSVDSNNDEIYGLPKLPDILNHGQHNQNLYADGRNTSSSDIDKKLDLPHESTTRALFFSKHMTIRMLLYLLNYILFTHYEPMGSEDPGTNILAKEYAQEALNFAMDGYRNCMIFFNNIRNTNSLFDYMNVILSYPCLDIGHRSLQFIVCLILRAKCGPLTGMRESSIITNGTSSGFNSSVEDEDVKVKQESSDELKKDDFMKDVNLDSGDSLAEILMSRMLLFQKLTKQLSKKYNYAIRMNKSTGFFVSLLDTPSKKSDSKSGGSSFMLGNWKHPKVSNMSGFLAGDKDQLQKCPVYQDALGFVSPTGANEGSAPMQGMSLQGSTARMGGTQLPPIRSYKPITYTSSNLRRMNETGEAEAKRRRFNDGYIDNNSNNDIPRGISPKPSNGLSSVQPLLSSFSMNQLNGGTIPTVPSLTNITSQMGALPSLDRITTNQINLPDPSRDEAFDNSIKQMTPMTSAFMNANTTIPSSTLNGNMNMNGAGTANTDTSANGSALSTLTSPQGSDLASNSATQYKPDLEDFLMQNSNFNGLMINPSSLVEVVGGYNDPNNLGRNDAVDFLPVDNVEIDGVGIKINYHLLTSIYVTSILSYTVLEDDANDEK

Row | Sequence | PBM E-score
1 | ACCGCTAG | -0.0654
2 | AAACGAGG | -0.115
3 | ACACGTGA | -0.0908
4 | ACCTGGTG | -0.0298
5 | AAAGGAGT | 0.0715
6 | GGTCCAAC | 0.13
7 | AATCGCGG | 0.192
8 | CGTCAGGA | -0.255
9 | GACTGAAC | -0.134
10 | GATGTACA | 0.00013
11 | CACCTGCC | -0.0739
12 | AGATGTAT | -0.235
13 | ACAGAATC | -0.0649
14 | ACGCCCGC | 0.183
15 | AACTTTCG | -0.00132
16 | GATGACAC | -0.0914
17 | CAACGATG | -0.227
18 | AATGGATA | -0.0421
19 | GTCTGTCA | 0.0217
20 | CCCTCTGA | -0.0688
21 | AGGAAAAG | -0.074
22 | CATCGTCA | -0.284
23 | GTGGGCCA | -0.0535
24 | GTTCAGCA | -0.244
25 | ATCGAGGC | -0.191

Row | Sequence | PBM E-score
26 | ACTAGAGT | -0.234
27 | AATCTGCG | 0.263
28 | AACAGTAA | -0.19
29 | CCCTTTAC | 0.00221
30 | AAAAAGTA | -0.103
31 | ACAGCTCT | -0.31
32 | ACTGTTAA | -0.0464
33 | CTCTAGAG | -0.237
34 | CATTAGGA | -0.265
35 | GGGTGGAA | 0.0892
36 | GGTCGTAC | 0.145
37 | TATTAAAA | 0.0552
38 | GAAGACTC | -0.18
39 | ACCGCGGT | 0.277
40 | CCCTTCCG | 0.209
41 | ATATATCC | 0.399
42 | AGGTAGAT | -0.132
43 | CTATCCTC | -0.0805
44 | ATATCGGC | 0.455
45 | TACCAGTA | -0.0535
46 | GGAAGTAC | 0.295
47 | GTGCTGAA | -0.125
48 | GTCCCGAC | 0.243
49 | ACCGACGA | 0.295
50 | CCCAACTC | 0.149

Row | Sequence | PBM E-score
51 | CAAGGTTC | -0.0642
52 | AAAACCTT | 0.0357
53 | GACAAGAA | 0.0641
54 | GACGTCGC | -0.208
55 | CATGGGCC | 0.0341
56 | AACGCGAT | 0.187
57 | ATTAGAAT | -0.0438
58 | CGCCAGAG | -0.0599
59 | CTGCAAAA | -0.215
60 | ACGCATTG | -0.134
61 | ATTACAGC | -0.119
62 | AAAAGATG | -0.198
63 | CAGAACCA | -0.328
64 | CCGAGATC | 0.36
65 | GATCGTAA | -0.154
66 | ACATATTA | -0.0822
67 | CTGGTAAG | -0.216
68 | AGGTTTGA | -0.0406
69 | AAGAGGAA | -0.224
70 | GATGCGCA | -0.0228
71 | GGCGGTAC | 0.0136
72 | ATGTGTGG | -0.0579
73 | TCAGCGCA | -0.0852
74 | AGACAACA | -0.0316
75 | TCTCTCAA | -0.0191

Row | Sequence | PBM E-score
76 | GGAGCGTA | 0.0997
77 | ACAAATAT | 0.0379
78 | AAACTAAC | -0.087
79 | ATTAGTCC | 0.255
80 | AAGACACC | 0.126
81 | ACTCGTTA | -0.161
82 | GGTGTAGA | 0.044
83 | AGCACCGG | 0.292
84 | AATAAAAT | -0.2
85 | ATCTCCAC | 0.168
86 | GCCTGGCA | -0.263
87 | GATTCCCA | -0.0361
88 | AAGCGTTC | -0.297
89 | AGCATCCT | -0.0258
90 | AGACATCT | -0.0923
91 | AAAGCTTA | -0.199
92 | GAGCATAC | -0.048
93 | ACAACCAA | -0.225
94 | CGAATTCC | 0.168
95 | AGTCCCAC | -0.263
96 | ATGCAATA | -0.249
97 | CGAAATAA | 0.182
98 | GCAACAAC | -0.117
99 | TCACTTCA | -0.115
100 | GGGAGGAC | -0.0255

Row | Sequence | PBM E-score
101 | CGGACACA | 0.346
102 | ACCGAAGT | 0.17
103 | CCCTCAGA | -0.334
104 | ATGCCTCC | -0.0554
105 | AATAGTCC | 0.18
106 | GAACCCCC | -0.0311
107 | AATTTCCT | 0.0207
108 | AGACTATA | -0.0611
109 | CAGGATCC | -0.0214
110 | CACGGACG | 0.331
111 | CGCTTGCC | 0.0248
112 | TTAGAGAA | -0.312
113 | AGTAAACC | 0.0884
114 | CGACGTCA | -0.018
115 | CAATTAAA | -0.0462
116 | ACACGAAC | -0.0394
117 | CGTTTCAC | -0.0243
118 | CACTAACA | -0.0964
119 | ATCGTCAT | -0.154
120 | CCCGTACG | 0.111
121 | CCTGCCTC | -0.223
122 | ACGACTGG | -0.019
123 | CCTTCAAC | -0.282
124 | CGGGGCAA | 0.198
125 | GCTTGGCC | 0.00907

Row | Sequence | PBM E-score
126 | CTAGAATC | -0.144
127 | CTGTCACC | -0.112
128 | CATGTCAG | -0.282
129 | CTTTAAAG | -0.156
130 | GATCAAAC | -0.0316
131 | AGTGAGCC | -0.0809
132 | AGTTGACG | -0.118
133 | GAAGCCTA | -0.0624
134 | TCAGCCCA | -0.077
135 | CATCACTC | -0.0906
136 | ACGTCTTA | -0.324
137 | GCTAAAAA | -0.191
138 | AGAATCTG | 0.0171
139 | CACGCATA | -0.245
140 | CAGAGTAC | -0.2
141 | CGCTGCCG | 0.00047
142 | GACGGGCC | 0.142
143 | TAACTAAA | -0.0154
144 | CCGCGGCC | 0.3
145 | CAACGCTG | -0.075
146 | TGCCTAAA | -0.195
147 | AGCGTTTA | 0.0549
148 | ACTAGGTG | -0.179
149 | GAAGTGAA | -0.0198
150 | GTCCGCTA | 0.37

Row | Sequence | PBM E-score
151 | AGCGCCCA | -0.297
152 | ATTAGGTA | -0.235
153 | GCGCCGCA | 0.214
154 | GCGCATAA | -0.0289
155 | ATCTTACC | 0.0746
156 | GCATAGGA | -0.136
157 | ATCTCCCA | 0.0357
158 | AATATCCT | -0.0321
159 | CCGGTCAG | 0.315
160 | GTCCATAA | -0.17
161 | ATCCGGTC | 0.329
162 | GGGGCAAA | 0.144
163 | GCCGAAGA | 0.244
164 | ACTGCAAC | -0.233
165 | GCCTAGCA | -0.266
166 | CATCTAAA | 0.0278
167 | AAATGCCT | -0.13
168 | GACATGTA | 0.0382
169 | CTGGGCTC | -0.134
170 | ACTTAACT | -0.00446
171 | CTCGGGCC | 0.329
172 | CAATGGAC | -0.0716
173 | CCCAGACC | 0.0135
174 | CGAGTCCA | -0.0732
175 | GAGCGAAA | 0.126

Row | Sequence | PBM E-score
176 | ATTTAGCG | 0.146
177 | ACCACAAC | -0.039
178 | ACTGCATA | -0.112
179 | CCGCCCAG | 0.166
180 | GACTGCTA | -0.119
181 | CACACTAA | -0.141
182 | GACCGTGC | -0.00251
183 | AGGCTGAA | -0.0986
184 | GTGAGCGA | -0.052
185 | CAGGAGCG | -0.0395
186 | CCGTCTCC | 0.126
187 | AAGGGTGA | -0.088
188 | ACTCGTAT | -0.199
189 | AGAGACCC | -0.165
190 | GATAGCAC | -0.0698
191 | CAGGCATA | -0.143
192 | CGGAACAG | 0.257
193 | GAAGCCGC | 0.167
194 | TCCCACCA | -0.121
195 | GACTGCTC | -0.065
196 | AAGTACGA | 0.0847
197 | GGGACGGA | 0.227
198 | AGTGCTCC | 0.0294
199 | AACCGATT | 0.263
200 | CGAACCAC | 0.184

Row | Sequence | PBM E-score
201 | ATGTATCA | 0.0121
202 | GAGTAATC | 0.0296
203 | GCTGGACC | 0.0549
204 | GTAAATCA | 0.132
205 | AAAATGTT | -0.235
206 | AGAATCAG | 0.0289
207 | AAGGGCAG | -0.138
208 | ACAGTAAA | -0.0787
209 | GGATTGGA | -0.0689
210 | CGACTTAC | 0.071
211 | GAGTGACC | -0.064
212 | GGCAATTA | 0.202
213 | ATCGGCTA | 0.32
214 | TATAACGA | -0.134
215 | CCCACCTA | -0.216
216 | ACTAAACC | 0.212
217 | ACGAGTGC | -0.0497
218 | CCGTTGAA | 0.0341
219 | CAGAATCC | 0.0558

Source: the supplement of paper PMC3334620
